The supplement of paper PMC10126150
Values marked as one replicate rest on one cluster of the flow cell; about a third of the high ones do not repeat.

What follows are sequences tested on ATP (assay: switch fluorescence ratio, 500 uM ATP over buffer (Cy3 cluster intensity, sum of 5 cycles each) (fold (ratio)); higher = stronger signal-on switching upon ATP binding; sequences stand for … in TCGTCGGCAGCGTCAGATGTGTATAAGAGACAGTTTTTTTTTTTTTTTTTTTTTTTTT…TC). Conditions: aptamer strand: ATP DNA aptamer (quencher-CACCTGGGGGAGTATTGCGGAGGAAGG + anchor), 100 nM annealed; ATP concentration: 500 uM; one replicate.
Method in brief: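 Cy3-labelled switching-strand clusters on a modified Illumina MiSeq flow-cell were annealed to 100 nM quencher-labelled ATP aptamer, imaged in selection buffer, then imaged after 15 min with 500 uM ATP at 22 °C. Five buffer/ATP cycles ran, with NaOH stripping and re-annealing between them. The fluorescence ratio is summed target-cycle over summed buffer-cycle Cy3 intensity per cluster, averaged per switch-domain sequence. Clusters outside 100-1000 RFU were excluded.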
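Note: ATP exposure 15 min at 22 °C before imaging.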

| Sequence | switch fluorescence ratio |
| --- | --- |
| TGCCTGCTGT | 1.01 |
| TTAGTCGAAC | 1.07 |
| ACGCGTAATC | 1.05 |
| GAGTGGGGG | 0.996 |
| TCAACACCTT | 1.19 |
| CTTAACCGCA | 1.95 |
| ATGGACTGCA | 1.08 |
| GACAGGAGGG | 1.1 |
| CTATCGTCG | 1.03 |
| GCATGTGTAC | 1.12 |
| TCTAGCGAAG | 0.985 |
| ATTTCGTCTG | 0.984 |
| ATTTCGGTGT | 1.38 |
| CCTATACGGC | 1.04 |
| ATTCTTATAA | 1.02 |
| GAAGTCTCT | 1.01 |
| CTCCAGAGTT | 1.04 |
| GGTGCATTAA | 1.11 |
| CGTGTAGGGT | 1.07 |
| AATGGCCATC | 0.964 |
| GCGAAGAAT | 1 |
| GATCTGGAGA | 1.1 |
| CGTATGAGAG | 0.949 |
| TTGGTCTCAC | 0.985 |
| TAAAAGTCAT | 0.996 |

| Sequence | switch fluorescence ratio |
| --- | --- |
| ATACCCGGTT | 1.05 |
| TTCTCGAAGG | 0.959 |
| TTCGAGGGG | 0.988 |
| TGTATCCTGT | 0.972 |
| GTTCAAAACT | 1.03 |
| TTGATATAAA | 1.01 |
| ATCTCTATTT | 1.05 |
| CTCTGGGGTT | 0.943 |
| AGACGAAGTG | 0.969 |
| CCATTCGGGG | 1.05 |
| CGGGCGTCTT | 1.06 |
| GTCGTGCTT | 1.01 |
| AACTTTTC | 1.07 |
| CCGGATGTGG | 1.01 |
| ACAATAGCGT | 1.07 |
| ACAGGCCGGT | 1.04 |
| GTGCTAAAG | 0.988 |
| TGTACGTAGT | 0.969 |
| CATGCGGCAT | 1 |
| GACGCTGCCG | 1.06 |
| AGCCAAGGCC | 0.998 |
| TGTATGGAAT | 1.16 |
| GATTGTGCGA | 1.02 |
| TCTTGCTAG | 1.02 |
| TACGAGTCCC | 0.998 |

| Sequence | switch fluorescence ratio |
| --- | --- |
| TACGCTGGCA | 1.42 |
| TTTTCTAGTC | 1.06 |
| TTTTGATT | 1.04 |
| CTCCTTTGCC | 1.09 |
| ATTGGGTCAC | 1.01 |
| GGCCCCCTAT | 0.996 |
| ACACTCTTTT | 1.01 |
| CTACCCGACA | 1.93 |
| CTGTGAGGTG | 1.04 |
| GAGAAGGAAC | 1.04 |
| TTAAACCACG | 1.07 |
| TTCTACTAGG | 1.02 |
| AAACAGTGCT | 0.979 |
| CTTGTGCCCG | 1.11 |
| GAGTACTTTA | 1.02 |
| TGGCGAGGGC | 1.01 |
| TACGTTGAAC | 1.14 |
| CGCCCCGGAT | 1 |
| CGCCTTATAG | 1.09 |
| GAGAATTAGA | 1.01 |
| AGGGGCAGGC | 0.769 |
| CGTCGTCTGG | 1.01 |
| AAGGAGGAG | 0.96 |
| TATTTAGTGG | 0.953 |
| GACGCGGGGA | 1.43 |

| Sequence | switch fluorescence ratio |
| --- | --- |
| ATATGGATCC | 1.02 |
| AATCAGAATG | 0.989 |
| CAATCAGAT | 0.962 |
| CTCCACAGGG | 1.22 |
| CACGAATTCA | 0.968 |
| GGAGTAATTA | 1.19 |
| GGTGCCGGCA | 1 |
| TGAGGCATCT | 0.988 |
| CTAAGCTCAG | 1.04 |
| AATTTGTTAT | 0.994 |
| TGGAGTTCAA | 1.02 |
| TAGGCCGGTA | 0.993 |
| GTTTTCAGT | 0.982 |
| GCATCAATAG | 1.26 |
| AGGAGTGCAG | 1.02 |
| CACCGTGCTA | 1.08 |
| CGATATTCGC | 1.05 |
| CGCCGCGTCT | 1.05 |
| GGTGCGAACA | 0.991 |
| GGTTTTGTAC | 0.999 |
| GGAGACCGTT | 1.04 |
| TAATAGTGCG | 1 |
| CAAGTCATTA | 1 |
| ACGAGGCGCT | 0.985 |
| AGCGGTGTCT | 0.918 |
